Some of the results follow.
Legend:
HSkMC = human skeletal muscle cells; experiment: cytotoxicity call (relative viability < 0.9); settings: 10 µM
HepG2 = experiment: cytotoxicity call (relative viability < 0.9); settings: 10 µM
S. aureus RN4220 = experiment: growth inhibition call (relative growth <= 0.2); settings: 50 µM

Row | SMILES | cytotoxicity call (HSkMC) | cytotoxicity call (HepG2) | growth inhibition call (S. aureus RN4220)
1 | C[C@@H]1CN([C@H](C)CO)C(=O)c2cccc(NC(=O)Nc3ccc(F)cc3)c2O[C@H]1CN(C)Cc1ccc(Oc2ccccc2)cc1 | inactive | inactive | inactive
2 | CN(C)CC(=O)N[C@H]1CC[C@@H](CCNC(=O)C2CC2)O[C@@H]1CO | inactive | inactive | inactive
3 | COc1ccc(S(=O)(=O)Nc2ccc3c(c2)C(=O)N([C@@H](C)CO)C[C@@H](C)[C@H](CN(C)S(=O)(=O)c2ccc(F)cc2)O3)cc1 | inactive | inactive | inactive
4 | CC(C)(C)c1cc(C(C)(C)C)n(-c2ccc(-n3cccc3)cc2)n1 | inactive | inactive | inactive
5 | C[C@@H]1CN([C@H](C)CO)C(=O)c2cc(NS(C)(=O)=O)ccc2O[C@@H]1CN(C)Cc1ccc(C(F)(F)F)cc1 | inactive | inactive | inactive
6 | C[C@H](CO)N1C[C@H](C)[C@H](CN(C)S(C)(=O)=O)Oc2c(NS(C)(=O)=O)cccc2C1=O | inactive | inactive | inactive
7 | Cc1ccc(S(=O)(=O)N(C)C[C@@H]2OCCCC[C@H](C)Oc3ccc(NC(=O)Cc4ccccc4)cc3C(=O)N([C@H](C)CO)C[C@@H]2C)cc1 | inactive | active | inactive
8 | Cc1ccc(S(=O)(=O)Nc2cc([C@@H](C(=O)OC(C)C)C(=O)C(F)(F)F)c(O)c3ccccc23)c(C)c1 | inactive | inactive | inactive
9 | C[C@@H]1CCCCO[C@H](CN(C)S(=O)(=O)c2cccs2)[C@H](C)CN([C@@H](C)CO)C(=O)c2cc(NC(=O)Nc3ccccc3)ccc2O1 | inactive | inactive | inactive
10 | CC(C)(C)OC(=O)C[C@@H]1CC=CC[C@H](CC(=O)NCCO)C(=O)NCCOC1=O | inactive | inactive | inactive
11 | C[C@@H]1CCCCO[C@@H](CN(C)C(=O)c2ccncc2)[C@@H](C)CN([C@H](C)CO)C(=O)c2cc(NS(=O)(=O)c3ccc(Cl)cc3)ccc2O1 | inactive | inactive | inactive
12 | CCc1nc2ccc(C(=O)N3CCN(S(=O)(=O)CC)CC3)cn2c1N(CC)C(=O)CCC1CCCC1 | inactive | inactive | inactive
13 | CC1=C(CC(=O)O)c2cc(F)ccc2C1=Cc1ccc(S(C)=O)cc1 (stereo not given) | inactive | inactive | inactive
14 | O=C1O[C@@H](c2ccccc2)[C@@H](c2ccccc2)N2[C@@H](c3ccc(OCCO)cc3)[C@]3(C(=O)Nc4ccc(C#CC5=CCCCC5)cc43)[C@@H](C(=O)N3CCN(c4ncccn4)CC3)[C@H]12 | inactive | inactive | inactive
15 | CN1C(=O)c2cc(NC(=O)c3cccs3)ccc2OC[C@@H]2O[C@H](CC(=O)NCCN3CCCCC3)CC[C@H]21 | inactive | inactive | inactive
16 | C[C@H]1CN([C@@H](C)CO)C(=O)Cc2cc(NS(=O)(=O)c3cn(C)cn3)ccc2O[C@H]1CN(C)CC1CCCCC1 | inactive | inactive | inactive
17 | C[C@@H]1CN([C@@H](C)CO)S(=O)(=O)c2ccc(C#CC(C)(C)O)cc2O[C@H]1CN(C)Cc1ccncc1 | inactive | inactive | inactive
18 | C[C@@H]1CN([C@H](C)CO)C(=O)Cc2cc(NS(=O)(=O)c3cccs3)ccc2O[C@H]1CN(C)S(C)(=O)=O | inactive | inactive | inactive
19 | C[C@H]1CN([C@@H](C)CO)C(=O)c2cc(NS(=O)(=O)c3cccs3)ccc2O[C@@H]1CN(C)S(=O)(=O)c1ccccc1 | inactive | inactive | inactive
20 | NCC[C@@H]1CC[C@@H](NC(=O)C2CCCCC2)[C@H](CO)O1 | inactive | inactive | inactive
21 | C[C@H](NC(=O)C[C@H]1C[C@H]2c3cc(NC(=O)Nc4ccc(C(F)(F)F)cc4)ccc3O[C@H]2[C@H](CO)O1)c1ccccc1 | inactive | inactive | inactive
22 | O=C(NN=Cc1ccc([N+](=O)[O-])o1)c1ccc(O)cc1 | inactive | active | inactive
23 | O=C(O)c1cc2ncc(CCO)cn2n1 | inactive | inactive | inactive
24 | C[C@@H]1CN([C@@H](C)CO)C(=O)c2cc(NC(=O)Nc3ccc(F)cc3)ccc2O[C@@H](C)CCCCO[C@H]1CN(C)S(=O)(=O)c1ccccc1 | inactive | inactive | inactive
25 | C[C@@H]1CN([C@H](C)CO)C(=O)Cc2cc(NC(=O)C3CCCCC3)ccc2O[C@@H]1CN(C)Cc1ccc(C(=O)Nc2ccccc2N)cc1 | inactive | active | inactive
26 | NCC(=O)CCC(=O)O | inactive | inactive | inactive
27 | Cc1c(-c2cnccn2)ssc1=S | inactive | inactive | inactive
28 | COc1ccc(NC(=O)Nc2ccc3c(c2)C(=O)N([C@@H](C)CO)C[C@H](C)[C@H](CN(C)C(=O)Nc2ccc4c(c2)OCO4)OCCCC[C@H](C)O3)cc1 | inactive | inactive | inactive

Row | SMILES | cytotoxicity call (HSkMC) | cytotoxicity call (HepG2) | growth inhibition call (S. aureus RN4220)
29 | Cc1noc(C)c1NC(=O)N(C)C[C@H]1OCCCC[C@@H](C)Oc2ccc(NS(=O)(=O)c3cccs3)cc2C(=O)N([C@@H](C)CO)C[C@H]1C | inactive | inactive | inactive
30 | CN(C)C1CCN(C(=O)c2cnc(-c3noc4cc(-c5cccc(C(F)(F)F)c5)ccc34)s2)CC1 | active | active | inactive
31 | Cc1ccc(S(=O)(=O)Nc2ccc3c(c2)CC(=O)N([C@@H](C)CO)C[C@@H](C)[C@H](CN(C)C(=O)NC(C)C)O3)cc1 | inactive | inactive | inactive
32 | COc1ccc(S(=O)(=O)N(C)C[C@@H]2Oc3c(NC(=O)NC(C)C)cccc3C(=O)N([C@@H](C)CO)C[C@H]2C)cc1 | inactive | inactive | inactive
33 | CC[C@@H](O[Si](C#C[Si](C(C)C)(C(C)C)C(C)C)(C(C)C)C(C)C)c1cn(Cc2cccc(Cl)c2)nn1 | inactive | inactive | inactive
34 | C[C@@H]1CN([C@@H](C)CO)C(=O)c2cc(NC(=O)Cc3cn(C)c4ccccc34)ccc2O[C@H]1CN(C)CC1CCCCC1 | inactive | inactive | inactive
35 | C[C@@H]1CN([C@@H](C)CO)C(=O)c2cc(C#CCN(C)C)cnc2O[C@@H]1CN(C)C(=O)Nc1cccc(F)c1 | inactive | inactive | inactive
36 | C[C@@H]1CN([C@@H](C)CO)C(=O)c2cc(NC(=O)NC3CCCCC3)ccc2O[C@H]1CN(C)Cc1ccc(C(=O)Nc2ccccc2N)cc1 | inactive | inactive | inactive
37 | C[C@H](CO)N1C[C@H](C)[C@H](CN(C)CC2CCCCC2)Oc2ccc(NC(=O)Nc3cccc4ccccc34)cc2CC1=O | inactive | inactive | inactive
38 | Cc1noc(C)c1S(=O)(=O)Nc1ccc2c(c1)C(=O)N([C@H](C)CO)C[C@H](C)[C@H](CN(C)C(=O)Nc1ccccc1)OCCCC[C@@H](C)O2 | inactive | inactive | inactive
39 | C[C@@H]1CN([C@H](C)CO)C(=O)c2cc(NC(=O)Nc3cccc4ccccc34)ccc2O[C@H]1CN(C)C(=O)Nc1ccc2c(c1)OCO2 | inactive | inactive | inactive
40 | CN1CCN(C(=O)C[C@@H]2CC[C@@H]3[C@H](COC[C@H](O)CN3CC3CCCC3)O2)CC1 | inactive | inactive | inactive
41 | C[C@H]1CN([C@@H](C)CO)C(=O)c2c(c3ccccc3n2C)-c2ccccc2CO[C@H]1CN(C)Cc1cccc(F)c1 | inactive | inactive | inactive
42 | C[C@H](CO)N1C[C@H](C)[C@H](CN(C)S(=O)(=O)c2cccs2)Oc2ccc(NC(=O)c3ccncc3)cc2CC1=O | inactive | inactive | inactive
43 | C[C@@H]1CN([C@H](C)CO)C(=O)c2cccc(NC(=O)NC3CCCCC3)c2O[C@H]1CN(C)S(=O)(=O)c1cn(C)cn1 | inactive | inactive | inactive
44 | C[C@@H]1CCCCO[C@H](CN(C)C(=O)Cc2ccccc2)[C@H](C)CN([C@@H](C)CO)C(=O)c2cc(NC(=O)Nc3ccc(C(F)(F)F)cc3)ccc2O1 | active | inactive | inactive
45 | C[C@@H]1CN([C@@H](C)CO)C(=O)c2cccc(NC(=O)Nc3ccc4c(c3)OCO4)c2O[C@@H]1CN(C)Cc1ccc(Cl)c(Cl)c1 | inactive | inactive | inactive
46 | C[C@H]1CN([C@@H](C)CO)C(=O)Cc2cc(NC(=O)Cc3cn(C)c4ccccc34)ccc2O[C@H]1CN(C)S(=O)(=O)c1cn(C)cn1 | inactive | inactive | inactive
47 | COCC(=O)N(C)C[C@H]1Oc2cc(C#CCN(C)C)ccc2S(=O)(=O)N([C@@H](C)CO)C[C@H]1C | inactive | inactive | inactive
48 | C[C@@H]1CCCCO[C@H](CN(C)C(=O)Nc2ccccc2)[C@H](C)CN([C@@H](C)CO)C(=O)c2cc(NC(=O)Nc3ccc(F)cc3)ccc2O1 | inactive | inactive | inactive
49 | CN(C)/C=N/[C@@H]1N=C(C2CC2)N(C)C(=O)N1 | inactive | inactive | inactive
50 | CC(C)NC(=O)Nc1cccc2c1O[C@@H](CN(C)S(=O)(=O)c1cn(C)cn1)[C@@H](C)CN([C@@H](C)CO)C2=O | inactive | inactive | inactive
51 | CCC(=O)OC1C(OC2C(C)C(OC3CC(C)(OC)C(O)C(C)O3)C(C)C(=O)OC(CC)C(C)(O)C(O)C(C)C(=O)C(C)CC2(C)O)OC(C)CC1N(C)C.CCCCCCCCCCCCOS(=O)(=O)O (stereo not given) | inactive | inactive | inactive
52 | Cn1c(Nc2ccc(C(F)(F)F)cc2)nc2cc(Oc3ccnc(-c4ncc(C(F)(F)F)[nH]4)c3)ccc21 | active | active | inactive
53 | C[C@H](CO)N1C[C@H](C)[C@@H](CN(C)C(=O)Nc2ccc3c(c2)OCO3)Oc2ccc(NC(=O)CCN3CCOCC3)cc2CC1=O | inactive | inactive | inactive
54 | Cc1noc(C)c1NC(=O)N(C)C[C@H]1Oc2ccc(NC(=O)NC(C)C)cc2CC(=O)N([C@H](C)CO)C[C@@H]1C | inactive | inactive | inactive
55 | C[C@H]1CN([C@@H](C)CO)C(=O)Cc2cc(NS(=O)(=O)c3cn(C)cn3)ccc2O[C@@H]1CN(C)C(=O)NC1CCCCC1 | inactive | inactive | inactive

— the antibiotic and cytotoxicity screens of Wong et al. (2023)
